# Test results published in PubChem BioAssay AID624173 (National Center for Advancing Translational Sciences (NCATS), 2012).
# Hit rate of the full screen: of about 410,000 compounds, about 490 (0.12%) were called active. Inconclusive means that the source gave no clear call. Such entries were picked first, then a sample of the others. Calls come from the whole dose curve; as a rule, active = well fitted inhibition curve with a large enough effect; inconclusive = small, poorly fitted or top-dose-only effect; inactive = flat fitted curve, though single readings scatter. Potencies of inconclusive entries are doubtful fits and often do not repeat.
# Molecular target: pyruvate kinase (Trypanosoma brucei) (UniProt Q57TT1)
# Assay: qHTS of Trypanosoma Brucei Inhibitors; note: nearly all actives have a fitted effect of over 50% in size
# Conditions: TbPYK enzyme, Kinase-Glo Plus ATP luminescence, 45 min; series mostly up to 76.8 µM
# Method in brief: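 Enzyme and substrate buffer are dispensed first and compound is pin-transferred. ADP at 130 uM final then starts the reaction, which runs 45 min at room temperature. Detection reagent is added for 10 min before luminescence is imaged.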
# Potency is the fitted concentration of half-maximal effect; tags give direction and shape of the fitted curve.
row,Compound,Potency
1,Cc1occc1-c1n[nH]c(=S)n1-c1ccccc1,active: 17.8 µM
2,CCCCN1C=CC(=C2C(=O)c3ccccc3C2=O)C=C1,"inconclusive: 22.4 µM [inhibitor, partial curve]"
3,COC(=O)c1scc(C)c1S(=O)(=O)Nc1ccc(C)cc1,"inconclusive: 11.2 µM [inhibitor, partial curve]"
4,CC(C)OCCCn1c(=O)c2ccccc2n2c(-c3ccccc3)nnc12,inactive
5,COc1cccc(C(=O)NCc2cn3ccsc3n2)c1,inactive
6,COc1ccccc1NS(=O)(=O)c1cc(NC(=O)c2ccncc2)ccc1N1CCOCC1,"inconclusive: 12.6 µM [inhibitor, partial curve]"
7,O=C(NCc1ccco1)c1ccc(C(=O)NCc2ccco2)s1,"inconclusive: 28.2 µM [inhibitor, single point]"
8,COc1cc(C)nc(Nc2nc(C)c(C(C)=O)s2)n1,"inconclusive: 50.1 µM [inhibitor, single point]"
9,Cc1ccc(C(=O)Nc2nc(-c3ccccn3)cs2)cc1S(=O)(=O)N1CCOCC1,"inconclusive: 35.5 µM [inhibitor, partial curve, poor fit]"
10,COc1ccccc1N1C(=O)C2C(c3ccc(F)cc3)NN(C(=O)c3ccc(C)cc3)C2C1=O (stereo not drawn),inactive
11,COc1cc(N2CCOCC2)ccc1/C=C1\C(=O)NC(=O)N(C2CCCCC2)C1=O,"inconclusive: 31.6 µM [inhibitor, partial curve]"
12,Cc1cccc(OCCNc2cc(N3CCN(C)CC3)ccc2[N+](=O)[O-])c1,inactive
13,CC(/C=N/n1c(C2CCCCC2)n[nH]c1=S)=C\c1ccccc1,"inconclusive: 39.8 µM [inhibitor, partial curve, poor fit]"
14,COc1ccc(OC)c(-n2c(-c3cc(-c4ccco4)[nH]n3)n[nH]c2=S)c1,active: 3.16 µM
15,O=C(CCN1Cc2ccccc2C1)c1ccc2c(c1)OCCO2,"inconclusive: 28.2 µM [inhibitor, partial curve, poor fit]"
16,S=c1[nH]nc(CCc2nc3ccccc3[nH]2)n1-c1cccc(Cl)c1,"inconclusive: 11.2 µM [inhibitor, partial curve, poor fit]"
17,Cc1cc(-c2csc(N)n2)c(C)n1C,"inconclusive: 15.8 µM [inhibitor, partial curve, poor fit]"
18,Cn1c(NCCc2ccncc2)nc2cc(-c3ccsc3)sc2c1=O,inactive
19,CCN1C(=O)/C(=C/c2ccc(N(CC)CC)cc2OC)C(=O)NC1=S,"inconclusive: 22.4 µM [inhibitor, partial curve]"
20,CCN1C(=O)/C(=C2/C=Cc3cc(C)ccc3N2CC)N(C)C1=S,"inconclusive: 31.6 µM [inhibitor, partial curve]"
21,S=c1nc(-c2cc(Cl)ccc2Cl)[nH][nH]1,"inconclusive: 35.5 µM [inhibitor, single point]"
22,Cc1ccc(/C=C/C(=O)Nc2nccs2)o1,"inconclusive: 31.6 µM [inhibitor, single point]"
23,CN(C)c1ccc(CN(C(=O)c2cc3ccccc3oc2=O)C2CCS(=O)(=O)C2)cc1 (stereo not drawn),inactive

row,Compound,Potency
1,FC(F)(F)c1cccc(-n2c(Cn3nnc4ccccc43)n[nH]c2=S)c1,"inconclusive: 14.1 µM [inhibitor, partial curve, poor fit]"
2,COc1ccc(N2CCN(C(=O)c3cc4cc(Cl)ccc4[nH]3)CC2)cc1,inactive
3,S=c1[nH]nc(-c2cc(-c3ccccc3)n[nH]2)n1/N=C/C=C/c1ccccc1,"inconclusive: 3.16 µM [inhibitor, partial curve, poor fit]"
4,CSc1ncc(/C=C2/C(=O)NC(=O)N(C3CCCCC3)C2=O)cn1,"inconclusive: 25.1 µM [inhibitor, partial curve]"
5,O=C(Cn1c(=O)n(-c2ccc(F)c(Cl)c2)c(=O)c2sc3ccccc3c21)NC1CCCCC1,inactive
6,CC(C)CC1CC(=O)OC1(C)C(=O)CSc1nc2ccccc2s1 (stereo not drawn),"inconclusive: 28.2 µM [inhibitor, partial curve]"
7,Cc1c(NC(=O)c2c(N)sc3c2CCCC3)c(=O)n(-c2ccccc2)n1C,"inconclusive: 28.2 µM [inhibitor, single point]"
8,C/C(=N/Nc1nc(-c2ccccc2)c(CC(=O)O)s1)c1ccccc1,"inconclusive: 28.2 µM [inhibitor, partial curve, poor fit]"
9,CCn1c(CSCc2ccc(Cl)cc2)n[nH]c1=S,"inconclusive: 2.82 µM [inhibitor, full curve, poor fit]"
10,COCc1[nH]c(=S)c(C#N)cc1C(=O)OC,"inconclusive: 14.1 µM [inhibitor, partial curve, poor fit]"
11,CCCSc1ccc2nc(-c3ccccc3)cn2c1,"inconclusive: 31.6 µM [inhibitor, partial curve]"
12,O=C1NC(=O)C(=Cc2ccc(Sc3ccccc3)o2)C(=O)N1,active: 39.8 µM
13,Cc1cc(Cl)ccc1OCC(=O)NCc1ccncc1,inactive
14,CCc1ccc(NC(=S)Nn2cnnc2)cc1,"inconclusive: 39.8 µM [inhibitor, single point]"
15,Cc1cccc(-n2c(CNC(=O)c3ccc(S(=O)(=O)N4CCCCC4)cc3)n[nH]c2=S)c1,active: 7.94 µM
16,O=C(CCNC(=O)c1ccco1)NNC(=O)c1ccc(Br)cc1,"inconclusive: 31.6 µM [inhibitor, partial curve, poor fit]"
17,CCN(CC)c1ccc(NC(=O)C2CCN(S(=O)(=O)c3c(C)noc3/C=C/c3ccccc3F)CC2)c(C)c1,inactive
18,COc1ccccc1Nc1nc(-c2sc(NC(=O)c3ccccc3)nc2C)cs1,inactive
19,Cc1ccc(-c2csc(NS(=O)(=O)c3cccc(F)c3)n2)o1,"inconclusive: 31.6 µM [inhibitor, partial curve, poor fit]"
20,O=C(N/N=C/c1ccc(N2CCCCC2)o1)c1ccccc1[N+](=O)[O-],"inconclusive: 39.8 µM [inhibitor, partial curve, poor fit]"
21,COc1ccc(OC)c(-n2c(-c3cc(-c4ccccc4)n[nH]3)n[nH]c2=S)c1,"inconclusive: 2.51 µM [inhibitor, full curve, poor fit]"
22,COc1cccc(-n2c(-c3cccc(S(=O)(=O)N(C)C)c3)n[nH]c2=S)c1,active: 7.08 µM
23,CCOP(=S)(OCC)Oc1cc(C)oc(=O)c1Cl,"inconclusive: 31.6 µM [inhibitor, partial curve, poor fit]"

row,Compound,Potency
1,CSc1cc(-c2ccccc2)n(Cc2ccc(Cl)cc2Cl)c(=O)c1C#N,"inconclusive: 50.1 µM [inhibitor, single point]"
2,CCn1c(CN2CCCCC2)nc2cc(NC(=O)COc3ccc(C(C)(C)C)cc3)ccc21,inactive
3,Cn1c(/C=C/c2ccc(Cl)cc2Cl)c([N+](=O)[O-])c(=O)n(C)c1=O,inactive
4,CCc1ccc(-c2nc(CS(=O)CC(=O)NC3CCCCCC3)c(C)o2)cc1 (stereo not drawn),inactive
5,COc1ccc(N2C(=O)NC(=O)/C(=C\c3ccccc3[N+](=O)[O-])C2=O)cc1,"inconclusive: 11.2 µM [inhibitor, partial curve, poor fit]"
6,Cc1cc(=O)oc2c(N)nccc12,"inconclusive: 50.1 µM [inhibitor, single point]"
7,S=c1cn[nH]c2ccccc12,"inconclusive: 10 µM [inhibitor, partial curve]"
8,CC(C(=O)NCC(=O)Nc1ccc(F)c(F)c1F)N1CCN(c2ccc(O)cc2)CC1 (stereo not drawn),"inconclusive: 31.6 µM [inhibitor, single point]"
9,O=S(=O)(c1ccc2ccccc2c1)N1CCN(c2ccc(O)cc2)CC1,"inconclusive: 31.6 µM [inhibitor, single point]"
10,COc1ccc(C(=O)CSc2nnc(CNC(=O)c3ccc(OC)c(OC)c3)n2C)cc1,"inconclusive: 31.6 µM [inhibitor, partial curve]"
11,COc1ccc2c(C)nc(Nc3nc(C)cc(C)n3)nc2c1,"inconclusive: 50.1 µM [inhibitor, single point]"
12,NC(=O)c1ccc(-n2nnnc2Oc2ccccc2)cc1,"inconclusive: 50.1 µM [inhibitor, single point]"
13,O=C(CCCN1C(=O)/C(=C/c2ccccc2Cl)SC1=S)Nc1cccnc1,inactive
14,NC(=O)CSc1nc2scc(-c3ccco3)c2c(=O)n1-c1ccccc1,"inconclusive: 31.6 µM [inhibitor, single point]"
15,CCn1c(CNc2cccc(C(F)(F)F)c2)n[nH]c1=S,"inconclusive: 3.55 µM [inhibitor, partial curve, poor fit]"
16,CC(C)C(=O)Nc1ccc(NC(=O)c2cccnc2)cn1,inactive
17,COc1ccc(-c2nc3ccccn3c2Cl)cc1,"inconclusive: 35.5 µM [inhibitor, partial curve, poor fit]"
18,O=C1C=CC(=O)N1N(c1ccccc1)c1ccccc1,"inconclusive: 50.1 µM [inhibitor, single point]"
19,Cc1cccc(N2C(=O)NC(=O)/C(=C/c3ccc([N+](=O)[O-])o3)C2=O)c1,"inconclusive: 20 µM [inhibitor, partial curve, poor fit]"
20,CCCCSc1nnc(-c2cc3c(C(F)(F)F)nn(C)c3s2)n1C,"inconclusive: 20 µM [inhibitor, partial curve, poor fit]"
21,O=C(CSc1cn[nH]n1)Nc1cccc(C(=O)O)c1,"inconclusive: 31.6 µM [inhibitor, partial curve, poor fit]"
22,CCOc1ccc(C(CC(=O)O)NS(=O)(=O)c2ccc(C)cc2)cc1OC (stereo not drawn),"inconclusive: 31.6 µM [inhibitor, single point]"
